Reference: PubChem BioAssay AID1240 (Sanford-Burnham Center for Chemical Genomics, 2008)
Several values for one entry are separate records, joined by “and”; a condition that tells them apart may be missing. Equal entries are not always repeated. Hit rate of the full screen: of about 50,000 compounds, about 800 (1.6%) showed an effect of 50% or more. Some of the results follow.

target: Bcl-2-like protein 10 (Homo sapiens) (UniProt Q9HD36); test: Phenotype converters, Bcl-B/TR3 peptide binding displacement, primary biochemical FP (AID 1240); conditions: GST-Bcl-B / FITC-TR3 peptide fluorescence polarization; stronger effect = higher value; compound at 3.75 mg/L;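 further: 0% = Bcl-B with tracer peptide and DMSO and 100% = tracer peptide lacking Bcl-B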
Sequence of UniProt Q9HD36 (Q9HD36 whole entry, looked up): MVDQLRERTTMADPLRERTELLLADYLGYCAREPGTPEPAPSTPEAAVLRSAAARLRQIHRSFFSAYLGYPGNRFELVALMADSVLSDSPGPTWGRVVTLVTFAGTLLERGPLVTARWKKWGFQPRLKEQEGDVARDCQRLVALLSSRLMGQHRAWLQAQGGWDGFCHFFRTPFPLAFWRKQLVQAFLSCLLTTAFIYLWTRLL

SMILES	displacement
CC1=C(C(=O)OC(C)C)C(c2cccs2)C2=C(CC(c3ccccc3)CC2=O)N1 (stereo not drawn)	-7.4%
O=C(Nc1ccc(Cl)c(C(F)(F)F)c1)c1ccco1	-5.9%
C#CCSc1nc2sc(C)c(C)c2c(=O)n1CC=C	34.6%
CCOC(=O)c1c(-c2ccccc2)oc2ccc(OC(=O)c3cccs3)cc12	7.5%
Cc1cc(C(=O)N/N=C\c2cc(Br)ccc2OCc2ccccc2)n[nH]1	-2%
O=C(c1ccc(F)cc1)N(c1ccc(Cl)cc1)C1C=CS(=O)(=O)C1 (stereo not drawn)	8.6%
COc1ccc(Nc2n[nH]c(C)c2[N+](=O)[O-])cc1	1.8%
COc1cc2c(cc1OC)-c1nnc(-c3ccco3)n1C(C)(C)C2	-0.1%
O=C(COc1ccccc1)NCc1ccccn1	10%
COc1ccc(C2=CC(c3cccs3)C=C(c3ccc(OC)cc3)O2)cc1	162%
CC(C)CNC(=O)c1ccccc1NC(=O)CSCc1ccccc1	43.4%
COc1ccc(Cl)cc1C(=O)Nc1cccc(C)c1	-8.3%
CCOc1cc(OCC)cc(C(=O)Nc2ccc(NC(=O)CC)cc2)c1	-0.9%
O=C(Nc1ccccc1C(=O)NCc1ccco1)c1ccccc1	10.4%
O=c1c2ccc(Br)c3cccc(c32)c2nc3ccc4c5c(ccc(c35)n12)CC4	13.3%
O=c1oc2ccccc2c2c1ncn2C1CCCCC1	-1.9%
CC(=O)c1ccc(NC(=S)Nc2ccccc2)cc1	2.5%
CC1=C(C(=O)OC2CCCCC2)C(c2ccc(Br)cc2)C2=C(CCCC2=O)N1 (stereo not drawn)	-2%
O=C(Nc1nnc(COc2ccc(C3CCCCC3)cc2)s1)c1cccc(Cl)c1	15.6%
CCOc1cc(/C=C2\C(=O)NC(=O)N(c3cc(C)cc(C)c3)C2=O)ccc1O	10.5%
CCOc1ccc(NC(=O)C2C3/C=C\CCCCC32)cc1 (stereo not drawn)	-1.2%
O=C1NN(c2ccc(Cl)cc2)C(=O)/C1=C\c1ccc(F)cc1	4%

SMILES	displacement
CC1CCc2c(sc(NC(=O)Cc3ccccc3)c2C(N)=O)C1 (stereo not drawn)	-7.2%
COc1ccc(CC(=O)ONC(=O)c2ccc(Cl)cc2)cc1OC	12.8%
O=C(NC(=S)NCCc1ccccc1)c1ccccc1	12.2%
CC1=C(C(=O)Nc2ccc(Cl)cc2)C(c2ccc(Cl)cc2Cl)NC(=S)N1 (stereo not drawn)	-5.7%
O=C1Nc2ccc([N+](=O)[O-])cc2C12NN=C(c1ccccc1)S2 (stereo not drawn)	33.5%
O=C(NCc1ccc2c(c1)OCO2)c1ccc(S(=O)(=O)N2CCCC2)cc1	1.1%
O=C1CN(C(=O)c2ccc([N+](=O)[O-])cc2)c2ccccc2N1	3%
CCSC1=C(C#N)C(c2ccc(Br)cc2)CC(=O)N1 (stereo not drawn)	-1.5%
COc1ccc(-c2ccc(-c3nnc(-c4ccc([N+](=O)[O-])cc4)o3)cc2)cc1	-5.3%
COc1ccccc1N1CCN(C(=O)c2ccc(C)c(C)c2)CC1	1.6%
CC1CCc2nc(NC(=O)c3ccc(S(=O)(=O)N4CCCc5ccccc54)cc3)sc2C1 (stereo not drawn)	7.8%
O=C(COc1ccccc1)Nc1ccc(C(=O)OC2CCCCC2)cc1	-4.8%
O=C1NC(=S)N/C1=C/c1ccc(N2CCOCC2)cc1	94.5%
COc1cc2c(cc1OC)C(CSc1ccccc1C(=O)O)=NC(C)(C)C2	0.5%
COc1ccc(NS(=O)(=O)c2ccc(F)cc2)c([N+](=O)[O-])c1	-2.5%
CCc1ccc(/C=C2\SC(=O)NC2=O)cc1	8.8%
CCOC(=O)C1=CC2(SC=C(C(=O)OCC)S2)C2=C(S1)C(C)(C)N(C(=O)CC)c1ccc(C)cc12 (stereo not drawn)	0.1%
COc1cc(/C=C2\C(=O)NC(=S)N(c3ccccc3)C2=O)c([N+](=O)[O-])cc1OC	19.6%
CC(=O)Oc1cccc(N2C(=O)C3C4C=CC(C4)C3C2=O)c1 (stereo not drawn)	4.1%
CCOc1ccc(NC(=O)C(=O)NCc2ccc(C)cc2)cc1	0.4%
COC(=O)c1ccccc1NC(=O)c1ccc(-c2ccccc2)cc1	12.1%
CCN(CC)c1nc(-c2ccccc2Cl)nc2ccccc12	6.9%

SMILES	displacement
FC(F)(F)c1ccccc1CN1CCN(Cc2ccc3ccccc3c2)CC1	-12%
CC(=O)/C(C1=C(C(C)(C)C)C(=O)C(=O)C(C(C)(C)C)=C1)=C(/C)O	-5.5%
CCN(CC)C(=O)CN(c1ccccc1OC)S(=O)(=O)c1ccccc1	-0.6%
CC1(C)Cc2c(sc3nc(SCCOc4ccccc4)n(-c4ccccc4)c(=O)c23)CO1	2.6%
Cc1cc(=O)cc(C)n1-c1ccc(Cl)cc1	2.2%
C/C(=N\OCC(=O)N/N=C/c1ccccc1O)c1cccs1	-17.4%
CN1CCN(c2ccc3c4c(cccc24)C(=O)N(CCO)C3=O)CC1	155%
Cc1cccc(-n2c(CCN3C(=O)c4ccccc4C3=O)nc3ccccc3c2=O)c1	-11.3%
COc1ccc(/C=C/C(=O)c2c(C)nc3ccc(Br)cc3c2-c2ccccc2)cc1OC	-22.1%
Cc1cc(N(C)/N=C/c2cccnc2)nc(-c2ccccc2O)n1	-2.7%
COc1cc(OC)cc(C(=O)N2CCN(C(=O)c3ccccc3OC)CC2)c1	-0.4%
Cc1onc(-c2ccccc2)c1C(=O)Nc1cccc(Br)c1	-7.8%
Cc1cc(OCCN2CCOCC2)ccc1Cl	-1.9%
FC(F)(F)c1ccccc1CN1CCN(C2CCCCC2)CC1	1.4%
COc1ccc(-c2[nH]ncc2/C=N/NC(=O)c2ccc(Br)cc2)c(OC)c1	0.2%
CC(=O)NC1=NC(=O)/C(=C\c2cn(C)c3ccccc23)S1	123%
COc1cc(NC(=O)COc2ccc(C)cc2C)ccc1NC(=O)c1ccco1	-3.3%
COc1c(Cl)cc(/C=C2/SC(=S)N(c3ccccc3)C2=O)cc1Cl	16.4%
Cc1cc(=O)[nH]c(SCC(=O)c2ccc(Br)cc2)n1	17.2% and -5.2%
O=C(Nc1ccc(NC(=O)c2ccc([N+](=O)[O-])cc2)cc1)c1ccc(Br)cc1	2.8%
Cc1ccc(S(=O)(=O)Oc2ccc(/C=C3/SC(=S)N(C)C3=O)cc2)cc1	-3.3%
OCCN(CCO)c1ccc(C(c2ccc(Cl)cc2)c2ccc(N(CCO)CCO)cc2)cc1	9.7%

SMILES	displacement
COc1ccccc1NC(=O)c1cccc(S(=O)(=O)N2CCOCC2)c1	3.8%
Cc1ccc(Cl)cc1NC(=O)/C(C#N)=C\c1ccc(I)o1	-15.6%
COCCOC(=O)C1=C(C)NC2=C(C(=O)CC(C)(C)C2)C1c1cccc(Cl)c1 (stereo not drawn)	1.1%
O=C(NCCN1CCOCC1)c1cccc(C(=O)NCCN2CCOCC2)c1	-3.8%
O=C1NC(=S)N/C1=C/c1ccc(-c2ccc(F)c(Cl)c2)o1	16.4%
O=C(Oc1cccc(/C=N/Nc2nc(N3CCOCC3)nc(N3CCOCC3)n2)c1)c1ccco1	-7.1%
CCOc1ccc(/C=C/C(=O)c2cccc(Br)c2)cc1	9.5%
COc1cccc(/C=N/N2C(=O)c3cccc4cccc(c34)C2=O)c1OC	12.9%
O=C(O)c1ccc(CSc2ncccn2)cc1	-16.7%
COc1ccc(Br)cc1CN1CCN(Cc2ccc([N+](=O)[O-])cc2)CC1	-11.1%
COC(=O)c1ccc(/C=C2\SC(=Nc3cccc(Cl)c3Cl)NC2=O)cc1	-1.6%
COC(=O)C1=C(C(=O)OC)SC(=C2C(=S)C(C)(C)N(C(=O)c3ccc(OC)cc3)c3ccc(OC)cc32)S1	-0.5%
O=[N+]([O-])c1cccc(NN=C2CCCC2)c1	-9.3%
COc1ccc2c(c1)OCC/C2=N\OC(=O)c1cc(OC)c(OC)c(OC)c1	-2.9%
COc1ccc(/C=C2\C(=O)N(c3cccc(C(=O)O)c3)N=C2C)cc1Br	21.9%
O=C(CCNc1n[nH]c(=O)[nH]c1=O)OCc1ccccc1	-0.5%
COC(=O)C1=C(C)NC(C)=C(C(=O)OC)C1c1ccc(OC)c([N+](=O)[O-])c1	-10.3%
CCOc1ccc2cc(S(=O)(=O)N3CCCCC3C)ccc2c1 (stereo not drawn)	8.8%
Cc1cc(=O)oc2cc(OCC(=O)c3ccc(Cl)cc3)ccc12	12.9%
COc1ccc(N(CC(=O)NC23CC4CC(CC(C4)C2)C3)S(=O)(=O)c2ccccc2)cc1	2.4%
COc1ccc(CCNC(=O)CSc2nnc(-c3cccc(F)c3)n2-c2ccccc2)cc1OC	-11.1%
COc1ccc(C2CC(=O)C3=C(C2)Nc2ccccc2NC3c2ccccc2Cl)cc1OC (stereo not drawn)	9.1%

SMILES	displacement
CC(Sc1ccc(Cl)cc1)C(=O)NCCc1ccccc1 (stereo not drawn)	4.9%
COc1ccc2c(c1OC)C(=O)N(c1ccc(C)cc1)C2=O	-11.2%
Cc1cc(OCC(=O)Nc2ccc(C(C)C)cc2)ccc1Cl	-6.6%
Cc1cc(C)c(NC(=O)C(C)Sc2nc3ccc(N4C(=O)c5ccccc5C4=O)cc3s2)c(C)c1 (stereo not drawn)	18.3%
c1ccc(-c2onc3ccc4c5ccccc5oc4c23)cc1	-0.7%
CC(C)c1ccc(NC2=NS(=O)(=O)c3ccccc32)cc1	-2.8%
COC(=O)CN(c1cccc(C(F)(F)F)c1)S(C)(=O)=O	11.7%
CC1CN(C(=O)c2cc(-c3ccccc3)nc3ccccc23)CC(C)O1 (stereo not drawn)	-3.7%
O=C(NCc1ccccn1)c1cc(-c2ccccc2)nc2ccccc12	-7.8%
CCC1=NN2C(=N)/C(=C/c3ccc(OCc4ccccc4)cc3)C(=O)N=C2S1	48.9%
COc1c(Cl)cc(C(=O)Nc2ccc(-c3nc4cc(C)ccc4o3)cc2)cc1Cl	13.8%
CCOc1cc(Br)c(/C=C2\C(=O)NC(=O)N(c3ccc(Cl)cc3)C2=O)cc1OC	9.6%
OC(CN1CCCCC1)CN1CCCCC1	-14.2%
CCCCOc1ccc2c(=O)c(Oc3ccccc3Br)coc2c1	14.4%
COc1cc(/C=C2/SC(=S)NC2=O)ccc1OCc1ccc(I)cc1	-8.4%
CCCCNc1ncnc2c1cnn2-c1ccccc1	11.2%
Cc1ccc(-c2csc(NC(=O)c3ccc(S(=O)(=O)N4CCCCCC4)cc3)n2)cc1	-19%
COc1ccc(CN2CCN(C3CCCC(C)C3)CC2)c(OC)c1 (stereo not drawn)	2.8%
CCOCCOC(=O)c1cccc(NC(=O)c2ccc(-c3ccccc3)cc2)c1	-1.1%
CC1(c2ccccc2)CC(C)(C)N(C(=O)c2cccc(F)c2)c2ccccc21 (stereo not drawn)	-3.6%
